The supplement of paper PMC8792480
Counter-ions that a name gives are not always drawn. The list shows a part of the results. Repeats are few or missing, and single values can be far off.

Tested on: A549
Assay: cell-surface PD-L1 MFI ratio relative to cisplatin alone (isotype-subtracted); higher = higher PD-L1 surface expression
Details: inducer: cisplatin 4 uM; 10 µM; 24 h
Procedure: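 A549 and H460 NSCLC cells were treated with each library drug at 10 uM, then with radiation (8 Gy) or cisplatin (4 uM), and incubated for 24 h. Cell-surface PD-L1 was measured by flow cytometry as an MFI ratio: (MFI drug+inducer - MFI isotype)/(MFI inducer alone - MFI isotype). Hits were defined as ratio < 0.75.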

SMILES | cell-surface PD-L1 MFI ratio
CC[C@@H]1C(=O)N(C)c2cnc(Nc3ccc(C(=O)N[C@H]4CC[C@H](N5CCN(CC6CC6)CC5)CC4)cc3OC)nc2N1C(C)C [Volasertib (BI 6727)] | inactive: 1.39
Cc1[nH]c(/C=C2\C(=O)Nc3ccccc32)c(C)c1CCC(=O)O [Orantinib (TSU-68, SU6668)] | inactive: 0.885
C[C@@H](Oc1ccc2[nH]nc(/C=C/c3cnn(CCO)c3)c2c1)c1c(Cl)cncc1Cl | inactive: 1.33
NC(=O)c1ncn([C@@H]2O[C@H](CO)[C@@H](O)[C@H]2O)c1N [AICAR (Acadesine)] | active: 0.668
C/C(=C\C(=O)Nc1ccccc1C(=O)O)c1ccc2ccccc2c1 | active: 0.735
CC(=O)Oc1ccccc1C(=O)O [Aspirin] | active: 0.474
COc1cc2ncnc(Nc3ccc(F)c(Cl)c3)c2cc1OCCCN1CCOCC1 [Gefitinib] | inactive: 1
Cc1nc(Nc2n[nH]c3c2CN(C(=O)N[C@H](CN(C)C)c2ccccc2)C3(C)C)c2sccc2n1 | inactive: 0.814
COc1ccc(S(=O)(=O)N(CCO)c2ccccc2CN(C)C/C=C/c2ccc(Cl)cc2)cc1 [KN-93 Phosphate] | inactive: 1.09
O=C(Nc1cccc2cccnc12)c1ccc(N2C(=O)[C@@H]3[C@H](C2=O)[C@@H]2C=C[C@H]3C2)cc1 [IWR-1-endo] | active: 0.718
CCc1cnn2c(NCc3ccc[n+]([O-])c3)cc(N3CCCC[C@H]3CCO)nc12 | active: 0.602
CC(=O)c1cnc2ccc(-c3cc(Cl)c(O)c(Cl)c3)nc2c1N[C@H]1CC[C@H](CN(C)C)CC1 | inactive: 1.8
COc1cc(Nc2ncc3c(n2)-c2ccc(Cl)cc2C(c2c(F)cccc2OC)=NC3)ccc1C(=O)O [Alisertib (MLN8237)] | inactive: 0.877
O=C(O)CCCc1cc2cc(Cl)ccc2n1S(=O)(=O)c1ccc2ncsc2c1 [Lanifibranor(IVA-337)] | inactive: 0.798
CC(C)Oc1ccc(C(=O)N[C@H](CNC(=O)CN(C)C)Cc2ccc(-c3cn4cccc([C@H](C)O)c4n3)cc2)cc1Cl | inactive: 0.888
CS(=O)(=O)CCNCc1ccc(-c2ccc3ncnc(Nc4ccc(OCc5cccc(F)c5)c(Cl)c4)c3c2)o1 | inactive: 0.909
COc1ccc(C2CC(c3ccccc3)=NN2c2ccc(S(N)(=O)=O)cc2)cc1 (stereo not given) | active: 0.591
CCS(=O)(=O)N1CC(CC#N)(n2cc(-c3ncnc4[nH]ccc34)cn2)C1 | inactive: 1.39
CCNC(=O)c1noc(-c2cc(C(C)C)c(O)cc2O)c1-c1ccc(CN2CCOCC2)cc1 [Luminespib (AUY-922, NVP-AUY922)] | active: 0.644
Cc1n[nH]c2ncc(C(=O)N3CCC[C@H]3c3ccc(Cl)cc3)cc12 | active: 0.524

SMILES | cell-surface PD-L1 MFI ratio
O=C(c1ccc(Nc2nccc(-c3cc4ccccc4s3)n2)cc1)N1CCC(N2CCCC2)CC1 [IKK-16 (IKK Inhibitor VII)] | inactive: 1.08
CN(C(=O)c1ccc(F)cc1C(F)(F)F)C1CCN(c2nnc(-c3ccnn3C)c3ccccc23)CC1 | active: 0.608
Cc1ccc(C(=O)Nc2cccc(C(F)(F)F)c2)cc1Nc1nc(-c2cccnc2)nc2c1cnn2C | inactive: 1.22
CCOc1cc(N2CCC(O)CC2)ccc1Nc1ncc2c(n1)N(C)c1ccccc1C(=O)N2C | inactive: 0.95
CC(C)[C@H]1C(=O)N[C@@H](CCCNC(=N)N)C(=O)NCC(=O)N[C@@H](CC(=O)O)C(=O)N[C@H](Cc2ccccc2)C(=O)N1C [Cilengitide trifluoroacetate] | active: 0.455
CC(C)c1c(C(=O)Nc2ccccc2)c(-c2ccccc2)c(-c2ccc(F)cc2)n1CC[C@@H](O)C[C@@H](O)CC(=O)O [Atorvastatin] | active: 0.497
C[C@]1(O)C[C@@H](c2nc(-c3ccc4ccc(-c5ccccc5)nc4c3)c3c(N)nccn32)C1 [Linsitinib (OSI-906)] | inactive: 1.1
CC(ONC(=O)c1cc(C(F)(F)F)cc(C(F)(F)F)c1)C(=O)Nc1ccc(Cl)cc1 (stereo not given) | active: 0.573
CCCCCCCCc1ccc(CCC(N)(CO)CO)cc1 [Fingolimod] | inactive: 0.918
O=c1cc(CN2CCOCC2)occ1OCCCCCSc1ccnc2cc(C(F)(F)F)ccc12 | active: 0.574
CC1(C)CCC(c2ccc(Cl)cc2)=C(CN2CCN(c3ccc(C(=O)NS(=O)(=O)c4ccc(N[C@H](CCN5CCOCC5)CSc5ccccc5)c(S(=O)(=O)C(F)(F)F)c4)cc3)CC2)C1 [Navitoclax (ABT-263)] | inactive: 0.839
Cc1cc(Nc2cc(N3CCN(C)CC3)nc(Sc3ccc(NC(=O)C4CC4)cc3)n2)n[nH]1 [Tozasertib (VX-680, MK-0457)] | inactive: 0.862
N#Cc1ccc2ncnc(NCCc3ccccc3)c2c1 [Senexin A] | active: 0.641
COc1cc2nccc(Oc3ccc(NC(=O)C4(C(=O)Nc5ccc(F)cc5)CC4)cc3)c2cc1OC [Cabozantinib] | inactive: 0.817
O=C(O)c1ccc2c(c1)nc(Nc1cccc(Cl)c1)c1ccncc12 [Silmitasertib (CX-4945)] | inactive: 1.58
CC1(C)CCC(CN2CCN(c3ccc(C(=O)NS(=O)(=O)c4ccc(NCC5CCOCC5)c([N+](=O)[O-])c4)c(Oc4cnc5[nH]ccc5c4)c3)CC2)=C(c2ccc(Cl)cc2)C1 [Venetoclax (ABT-199, GDC-0199)] | inactive: 1.1
CN(C)C/C=C/C(=O)Nc1ccc(C(=O)Nc2cccc(Nc3ncc(Cl)c(-c4c[nH]c5ccccc45)n3)c2)cc1 | inactive: 1.02
CNC(=O)c1cc(Oc2ccc(NC(=O)Nc3ccc(Cl)c(C(F)(F)F)c3)c(F)c2)ccn1 [Regorafenib] | active: 0.682
O=C([C@@H](Cc1cccc(C(F)(F)F)c1)NS(=O)(=O)c1cc(F)c2c(c1)CCNC2)N1CCCC1 | active: 0.429
CN1C(=O)c2sccc2N(C)c2nc(Nc3ccc(S(N)(=O)=O)cc3)ncc21 | inactive: 1.06
